Experimental data taken from the antibiotic and cytotoxicity screens of Wong et al. (2023).
The list shows a part of the results.

Each compound was assayed on HepG2 (assay: cytotoxicity call (relative viability < 0.9)). Conditions: 10 µM.

Row | SMILES | cytotoxicity call
1 | C[C@H](CO)N1C[C@H](C)[C@H](CN(C)S(C)(=O)=O)Oc2ccc(NC(=O)C3CCCCC3)cc2CC1=O | inactive
2 | C[C@H]1CN([C@@H](C)CO)C(=O)Cc2cc(NC(=O)CCN3CCOCC3)ccc2O[C@H]1CN(C)Cc1ccncc1 | inactive
3 | CCCC1OC2CC3C4CCC5=CC(=O)C=CC5(C)C4C(O)CC3(C)C2(C(=O)CO)O1 (stereo unspecified) | inactive
4 | C[C@H]1CN([C@@H](C)CO)C(=O)c2cc(NC(=O)Nc3cccc4ccccc34)ccc2O[C@@H]1CN(C)Cc1ccccc1 | inactive
5 | COc1cc(/C=C/C(=O)N(C)CCN(C)C(=O)/C=C/c2cc(OC)c(OC)c(OC)c2)cc(OC)c1OC | inactive
6 | O=C(O)C1(c2cccs2)CCCC1 | inactive
7 | Cn1c(=O)c2c(ncn2C[C@@H](O)COc2ccccc2)n(C)c1=O | inactive
8 | COc1cccc(-c2cccc(-c3nc(C(=O)N[C@@H]4CCN(Cc5ccccc5)C4)cc4c3[C@H](CCO)N(S(=O)C(C)(C)C)C4)c2)c1 (stereo partly specified) | inactive
9 | COCC(=O)N1C[C@@H](C)[C@@H](OC)CN(C)C(=O)c2ccc(NC(=O)Nc3cccc(F)c3)cc2OC[C@@H]1C | inactive
10 | C/C=C/c1cccc(-c2nc(C(=O)NCc3ccccc3)cc3c2[C@@H](CCO)N([S@](=O)C(C)(C)C)C3)c1 | inactive
11 | C[C@@H]1CCCCO[C@H](CN(C)Cc2ccncc2)[C@H](C)CN([C@@H](C)CO)C(=O)c2cc(NC(=O)Nc3ccc(F)cc3)ccc2O1 | inactive

Each compound was assayed on S. aureus RN4220 (assay: growth inhibition call (relative growth <= 0.2)). Conditions: 50 µM.

Row | SMILES | growth inhibition call
12 | CCOc1ccc(Nc2c3ccccc3nc3ccccc23)cc1 | inactive
13 | C[C@@H]1CCCCO[C@H](CN(C)C(=O)NC2CCCCC2)[C@H](C)CN([C@H](C)CO)C(=O)c2cc(NC(=O)Cc3ccccc3)ccc2O1 | inactive
14 | C[C@@H]1CN([C@H](C)CO)C(=O)Cc2cc(NC(=O)CCCN(C)C)ccc2O[C@@H]1CN(C)S(=O)(=O)c1ccccc1 | inactive
15 | O=C(C[C@@H]1C[C@H]2c3cc(NC(=O)NC4CCCC4)ccc3O[C@H]2[C@@H](CO)O1)NCc1ccc2c(c1)OCO2 | inactive
16 | C[C@@H]1CN([C@@H](C)CO)C(=O)c2cc(C3=CCCC3)cnc2O[C@H]1CN(C)S(=O)(=O)c1cn(C)cn1 | inactive
17 | C[C@H](CO)N1C[C@H](C)[C@H](CN(C)C(=O)Nc2ccccc2)Oc2ccc(NC(=O)Nc3cccc4ccccc34)cc2C1=O | inactive
18 | C[C@@H]1CCCCO[C@@H](CN(C)C(=O)c2ccccc2)[C@@H](C)CN([C@@H](C)CO)C(=O)c2cc(NC(=O)Cc3ccccc3)ccc2O1 | inactive
19 | Cc1noc(C)c1NC(=O)Nc1cccc2c1O[C@H](CN(C)Cc1ccc(Cl)c(Cl)c1)[C@@H](C)CN([C@H](C)CO)C2=O | inactive
20 | Cc1ccc(S(=O)(=O)N(C)C[C@H]2OCCCC[C@@H](C)Oc3ccc(NC(=O)Nc4ccc5c(c4)OCO5)cc3C(=O)N([C@@H](C)CO)C[C@@H]2C)cc1 | inactive
21 | O=C(O)C[C@](O)(CC(=O)[O][Bi]1[O]C(=O)C[C@@](O)(CC(=O)O)C(=O)[O]1)C(=O)O | inactive
22 | Cc1noc(C)c1NC(=O)N(C)C[C@H]1Oc2cc(C#CCN(C)C)ccc2S(=O)(=O)N([C@@H](C)CO)C[C@@H]1C | inactive
23 | C[C@@H]1CN([C@@H](C)CO)S(=O)(=O)c2ccc(Br)cc2O[C@H]1CN(C)C(=O)c1ccccc1 | inactive
24 | CC1(C)C(=O)NCCN1C(=O)Cc1ccccc1 | inactive
25 | COc1ccc(S(=O)(=O)N2C[C@@H](O)COC[C@H]3O[C@@H](CC(=O)NCCCN4CCOCC4)CC[C@@H]32)cc1 | inactive
26 | C[C@@H]1CN([C@@H](C)CO)C(=O)c2cc(N(C)C)ccc2O[C@H]1CN(C)S(C)(=O)=O | inactive
27 | CC(C)NC(=O)Nc1ccc2c(c1)CC(=O)N([C@H](C)CO)C[C@H](C)[C@H](CN(C)S(=O)(=O)c1cn(C)cn1)O2 | inactive
28 | O=C(C[C@@H]1CC[C@@H]2[C@H](COC[C@H](O)CN2S(=O)(=O)c2cccc(Cl)c2)O1)NC1Cc2ccccc2C1 | inactive
29 | Cc1ccc(S(=O)(=O)N(C)C[C@H]2OCCCC[C@@H](C)Oc3ccc(NC(=O)CCC(F)(F)F)cc3C(=O)N([C@H](C)CO)C[C@H]2C)cc1 | inactive
30 | C[C@@H]1CN([C@H](C)CO)C(=O)c2cc(C3=CCCCC3)cnc2O[C@@H]1CN(C)C(=O)CN1CCOCC1 | inactive
31 | COc1cccc(NC(=O)N[C@H]2C=C[C@H](CC(=O)N3CCOCC3)O[C@H]2CO)c1 | inactive
